In the supplement of paper PMC8728848:
The list shows a part of the results.

How the values were obtained:
Assay in all cases: glycan array binding signal (z-score within array); higher = stronger binding
Conditions in all cases: glycan notation: IUPAC condensed, linker removed
[1] = molecular target: Gal(a1-3)Gal(b1-4)GlcNAc(b1-2)Man
Method in brief: (§1)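 Columns mapping to the same glycan were averaged after glycan names were converted to IUPAC-condensed notation. The data come from 3228 arrays in the Consortium for Functional Glycomics database, limited to those with an available protein sequence. Binding is reported as a within-array Z-score averaged across arrays of one protein sequence and across linkers.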

[2] = molecular target: Gal(a1-3)Gal(b1-4)GlcNAc(b1-2)Man(a1-3)[Gal(a1-3)Gal(b1-4)GlcNAc(b1-2)Man(a1-6)]Man(b1-4)GlcNAc(b1-4)GlcNAc
Method in brief: as §1

[3] = molecular target: Gal(a1-3)Gal(b1-4)GlcNAc(b1-3)GalNAc
Method in brief: as §1

[4] = molecular target: Gal(a1-3)Gal(b1-4)GlcNAc(b1-6)GalNAc
Method in brief: as §1

[5] = molecular target: Gal(a1-3)Gal(b1-4)[Fuc(a1-3)]GlcNAc
Method in brief: as §1

[6] = molecular target: Gal(a1-3)Gal(b1-4)[Fuc(a1-3)]GlcNAc(b1-2)Man(a1-3)[Gal(a1-3)Gal(b1-4)[Fuc(a1-3)]GlcNAc(b1-2)Man(a1-6)]Man(b1-4)GlcNAc(b1-4)GlcNAc
Method in brief: as §1

[7] = molecular target: Gal(a1-3)GalNAc
Method in brief: as §1

[8] = molecular target: Gal(a1-3)[Gal(a1-4)]Gal(b1-4)GlcNAc
Method in brief: as §1

[9] = molecular target: Gal(a1-4)Gal(b1-3)GlcNAc(b1-2)Man(a1-3)[Gal(a1-4)Gal(b1-3)GlcNAc(b1-2)Man(a1-6)]Man(b1-4)GlcNAc(b1-4)GlcNAc
Method in brief: as §1

[10] = molecular target: Gal(a1-4)Gal(b1-4)Glc
Method in brief: as §1

[11] = molecular target: Gal(a1-4)Gal(b1-4)GlcNAc
Method in brief: as §1

[12] = molecular target: Gal(a1-4)Gal(b1-4)GlcNAc(b1-2)Man(a1-3)[Gal(a1-4)Gal(b1-4)GlcNAc(b1-2)Man(a1-6)]Man(b1-4)GlcNAc(b1-4)GlcNAc
Method in brief: as §1

[13] = molecular target: Gal(a1-4)Gal(b1-4)GlcNAc(b1-3)Gal(b1-4)Glc
Method in brief: as §1

[14] = molecular target: Gal(a1-4)GlcNAc
Method in brief: as §1

[15] = molecular target: Gal(a1-6)Glc
Method in brief: as §1

[16] = molecular target: Gal(b1-2)Gal
Method in brief: as §1

[17] = molecular target: Gal(b1-3)Gal
Method in brief: as §1

[18] = molecular target: Gal(b1-3)Gal(b1-4)GlcNAc
Method in brief: as §1

[19] = molecular target: Gal(b1-3)GalNAc
Method in brief: as §1

[20] = molecular target: Gal(b1-3)GalNAc(a1-3)[Fuc(a1-2)]Gal(b1-4)Glc
Method in brief: as §1

[21] = molecular target: Gal(b1-3)GalNAc(a1-3)[Fuc(a1-2)]Gal(b1-4)GlcNAc
Method in brief: as §1

[22] = molecular target: Gal(b1-3)GalNAc(b1-3)Gal
Method in brief: as §1

[23] = molecular target: Gal(b1-3)GalNAc(b1-3)Gal(a1-4)Gal(b1-4)Glc
Method in brief: as §1

[24] = molecular target: Gal(b1-3)GalNAc(b1-4)Gal(b1-4)Glc
Method in brief: as §1

[25] = molecular target: Gal(b1-3)GalNAc(b1-4)[Neu5Ac(a2-3)]Gal(b1-4)Glc
Method in brief: as §1

[26] = molecular target: Gal(b1-3)GlcNAc
Method in brief: as §1

[27] = molecular target: Gal(b1-3)GlcNAc(a1-3)Gal(b1-4)GlcNAc
Method in brief: as §1

[28] = molecular target: Gal(b1-3)GlcNAc(a1-6)Gal(b1-4)GlcNAc
Method in brief: as §1

[29] = molecular target: Gal(b1-3)GlcNAc(b1-2)Man
Method in brief: as §1

[30] = molecular target: Gal(b1-3)GlcNAc(b1-2)Man(a1-3)[Gal(b1-3)GlcNAc(b1-2)Man(a1-6)]Man(b1-4)GlcNAc(b1-4)GlcNAc
Method in brief: as §1

[31] = molecular target: Gal(b1-3)GlcNAc(b1-2)Man(a1-3)[Gal(b1-3)GlcNAc(b1-2)Man(a1-6)]Man(b1-4)GlcNAc(b1-4)[Fuc(a1-6)]GlcNAc
Method in brief: as §1

[32] = molecular target: Gal(b1-3)GlcNAc(b1-2)Man(a1-3)[GlcNAc(b1-4)][Gal(b1-3)GlcNAc(b1-2)Man(a1-6)]Man(b1-4)GlcNAc(b1-4)GlcNAc
Method in brief: as §1

[33] = molecular target: Gal(b1-3)GlcNAc(b1-2)[Gal(b1-3)GlcNAc(b1-6)]Man(a1-6)[Gal(b1-3)GlcNAc(b1-2)Man(a1-3)]Man(b1-4)GlcNAc(b1-4)GlcNAc
Method in brief: as §1

[34] = molecular target: Gal(b1-3)GlcNAc(b1-3)Gal(b1-3)GlcNAc
Method in brief: as §1

[35] = molecular target: Gal(b1-3)GlcNAc(b1-3)Gal(b1-4)Glc
Method in brief: as §1

[36] = molecular target: Gal(b1-3)GlcNAc(b1-3)Gal(b1-4)GlcNAc
Method in brief: as §1

[37] = molecular target: Gal(b1-3)GlcNAc(b1-3)Gal(b1-4)GlcNAc(b1-2)Man(a1-3)[Gal(b1-3)GlcNAc(b1-3)Gal(b1-4)GlcNAc(b1-2)Man(a1-6)]Man(b1-4)GlcNAc(b1-4)GlcNAc
Method in brief: as §1

B1: FimD (Bordetella pertussis) (protein)
chain: MPARVISFCGAALAVWAGLAVQPAMAVDPPVDCGRALGLHFWSSASLISDQTPDGTLIGKPVVGRSLLSKSCKVPDDIKEDLSDNHDGEPVDIVLELGSNYKIRPQSYGHPGIVVDLPFGSTEETGIAIYIDFGSSPMQKVGERQWLYPQKGEVLFDVLTINGDNAEVRYQAIKVGPLKRPRKLVLSQFPNLFTYKWVFMRGTSQERVLAQGTIDTDVATSTIDLKTCRYTSQTVSLPIIQRSALTGVGTTLGMTDFQMPFWCYGWPKVSVYMSATKTQTGVDGVALPATGQAAGMASGVGVQLINGKTQQPVKLGLQGKIALPEAQQTESATFSLPMKAQYYQTSTSTSAGKLSVTYAVTLNYD
For B1, the “glycan array binding signal (z-score)” value [1] was -0.109, the “glycan array binding signal (z-score)” value [2] was 1.67 and the “glycan array binding signal (z-score)” value [3] was -0.373. For the same binder, the “glycan array binding signal (z-score)” value [4] was -0.253, the “glycan array binding signal (z-score)” value [5] was -0.54 and the “glycan array binding signal (z-score)” value [6] was 0.181. For the same binder, the “glycan array binding signal (z-score)” value [7] was -0.104, the “glycan array binding signal (z-score)” value [8] was 0.351 and the “glycan array binding signal (z-score)” value [9] was 0.407. The “glycan array binding signal (z-score)” value [10] was -0.034, the “glycan array binding signal (z-score)” value [11] was 0.016 and the “glycan array binding signal (z-score)” value [12] was 0.299. The “glycan array binding signal (z-score)” value [13] was 0.144, the “glycan array binding signal (z-score)” value [14] was -0.28 and the “glycan array binding signal (z-score)” value [15] was -0.424. For the same binder, the “glycan array binding signal (z-score)” value [16] was -0.17, the “glycan array binding signal (z-score)” value [17] was -0.42 and the “glycan array binding signal (z-score)” value [18] was -0.348. The “glycan array binding signal (z-score)” value [19] was -0.281, the “glycan array binding signal (z-score)” value [20] was -0.298 and the “glycan array binding signal (z-score)” value [21] was -0.449. For the same binder, the “glycan array binding signal (z-score)” value [22] was -0.089, the “glycan array binding signal (z-score)” value [23] was -0.115 and the “glycan array binding signal (z-score)” value [24] was 0.279. The “glycan array binding signal (z-score)” value [25] was -0.254, the “glycan array binding signal (z-score)” value [26] was 0.06 and the “glycan array binding signal (z-score)” value [27] was -0.403. For the same binder, the “glycan array binding signal (z-score)” value [28] was -0.163, the “glycan array binding signal (z-score)” value [29] was 0.008 and the “glycan array binding signal (z-score)” value [30] was 1.11. The “glycan array binding signal (z-score)” value [31] was 0.621, the “glycan array binding signal (z-score)” value [32] was 0.431 and the “glycan array binding signal (z-score)” value [33] was 0.171. The “glycan array binding signal (z-score)” value [34] was -0.326, the “glycan array binding signal (z-score)” value [35] was -0.264 and the “glycan array binding signal (z-score)” value [36] was -0.443. For the same binder, the “glycan array binding signal (z-score)” value [37] was -0.14.
